Data on 55 compounds can be found in ChEMBL document CHEMBL5308541, “MAIP: An Open-Source Tool to Enrich High-Throughput Screening Output and Identify Novel, Druglike Molecules with Antimalarial Activity” (ACS Med Chem Lett, 2023).

Each structure is given as a SMILES string. About 540 (0.36%) of roughly 150,000 compounds showed an effect of 50% or more. Some of the results follow.

In general, % Inhibition refers to the drop in the measured response relative to a control, in per cent.

In this experiment the test system is Plasmodium falciparum. Nature of the experiment: Primary screen in NF54 nanoGlo assay, in single point, at 2uM, 72h; a lower Z score goes with more inhibition. Particulars: timepoint 72 hour. It is filed as functional, Erythrocyte.
Take `COc1nc(C)cc(C)c1CNC(=O)N1CCCC2OC(c3ccccc3)CC21` (stereo not given): the “% Inhibition” value is -8% and the Z score is 1.48.
For `Cc1cc(NC(=O)N2CCn3ccnc32)cnc1C(F)F`, in that order: -7% and 1.
The corresponding values for `O=C(NCc1ccc(OC(F)(F)F)cc1)N(CCN1CCCC1)[C@H]1CCCNC1` are 39% and -6.86.
Take `c1coc(CN2CCC(N3CCC(Oc4ccncc4)CC3)CC2)c1`: the “% Inhibition” value was -2% and the Z score is 0.54.
For `CC(C)N1CCN(c2cccc(Nc3ncccn3)c2)CC1`, in that order: 5% and -1.03.
The corresponding values for `COc1ccc2cc1O[C@@H]1CN[C@@H](C1)C(=O)NCCCCN(Cc1ccnc3ccccc13)CCCNC2=O` are -3% and 0.53.
As to `Cc1cnc([C@H](C)NC(=O)Nc2cccc3c2OCC(=O)N3)s1`, the “% Inhibition” value is -16% and the Z score was 2.43.
For `C[C@@H](c1ccc(-c2ccc(CN3CCN(C)CC3)cn2)cc1)N1CCCCC1`, in that order: 2% and -0.43.
For `C[C@H]1COCCN1CC(=O)N1CC=C(c2c[nH]c3ccccc23)CC1`, in that order: 4% and -0.62.
The corresponding values for `CN1CCC(OCCCNC(=O)[C@H]2CC(=O)N(C(C)(C)C)C2)CC1` are -1% and 0.19.
Consider `CCN(CC)c1cc(-c2cc(NC)nc3[nH]ccc23)nc(N)n1`, for which the “% Inhibition” value is reported as -10% and the Z score came out at 1.49.
The corresponding values for `COc1ccc(NC(=O)c2ccc(Nc3cc(-c4ccccc4)c4cc(Cl)ccc4n3)cc2)cc1` are -3% and 0.56.
The corresponding values for `Cc1c(CN[C@H]2CCCN(Cc3cccc(O)c3)C2)oc2ccccc12` are -3% and 0.47.
For `Cc1cccnc1NCCNCc1cnc(-c2ccc3ccccc3c2)nc1`, in that order: -5% and 0.8.
As for `Cc1ccc(CNC(=O)c2cccc(-c3cc(NC4CCCCC4)ncn3)c2)o1`, the “% Inhibition” value was -5% and the Z score came to 0.95.
Take `CC(C)N1C[C@@H](CN2CCC(N3CCC(O)CC3)CC2)CCC1=O`: the “% Inhibition” value is -5% and the Z score stood at 0.93.
For `CN1CCN(c2ncc(CNc3cnc4ccccc4c3)cn2)CC1`, the “% Inhibition” value is on record as -8% and the Z score is listed as 1.67.
The corresponding values for `CC1CCC(C)N1CCN1CCN(C(=O)CCC2CCNCC2)CC1` (stereo not given) are -6% and 1.26.
The corresponding values for `O=C(c1cc2ccc(OC(F)(F)F)cc2[nH]1)N1CCC(OC2CCOCC2)CC1` are -10% and 1.7.
The corresponding values for `N#CCC1CCN(C(=O)c2cccc(Br)c2Cl)CC1` are -2% and 0.48.
As for `CCN1CCN(C2CCN(c3nc(N)nc(C4CC4)n3)CC2)C1=O`, the “% Inhibition” value is -1% and the Z score came out at 0.22.
For `O=C(NC1(c2cc(F)cc(F)c2)CC1)[C@H]1CC12CC2`, in that order: -7% and 1.03.
The corresponding values for `CC(C)N1CCN(CCNC(=O)N2CCC(Oc3ccncc3)CC2)CC1` are 0% and -0.02.
For `Fc1ccc(C2CCNCC2NCc2ccc3cn[nH]c3c2)cc1` (stereo not given), in that order: -2% and 0.24.
For the compound `CC(C)(C)OC(=O)N1CCN(CCCNc2ccncc2C(N)=O)CC1`, the “% Inhibition” value turned out to be 7% and the Z score is -1.6.
As for `Cc1cc(NCc2cc(Cl)c3c(c2)OCCO3)nc(N)n1`, the “% Inhibition” value came to 3% and the Z score is -0.53.
For `C[C@@H](c1ccncc1)N1CCC(Nc2ncc(F)cn2)CC1`, the “% Inhibition” value is on record as -3% and the Z score stood at 0.5.
For `CCOC1CC(Nc2cc(-n3nc(C)cc3N)ncn2)C12CCCC2` (stereo not given), in that order: -7% and 1.17.
The corresponding values for `CC(C)(C)n1cc(-c2ccc3sc(CCC(=O)O)nc3c2)cn1` are -6% and 0.98.
The corresponding values for `CCCn1ncc(-c2ccnc(NCc3coc(-c4ccccc4)n3)n2)c1C` are -11% and 1.88.
Turning to `Cc1csc2ncnc(Nc3ccn(CCN4CCOCC4)n3)c12`, the “% Inhibition” value was -5% and the Z score was 1.01.
As to `NC1=Nc2nc(-c3ccccc3)nn2CC1`, the “% Inhibition” value turned out to be 0% and the Z score is given as 0.07.
Take `CC(C)CN1CCC(CNc2nncc(-c3cccc(Cl)c3)n2)CC1`: the “% Inhibition” value came out at 7% and the Z score is recorded as -1.21.
For `CN(CCCc1cc(-c2ccc(F)cc2)n[nH]1)CC1CCNCC1`, in that order: 24% and -5.17.
The corresponding values for `C[C@@H](c1ccc(F)cc1F)N1CCN(c2nc(N)c3cnn(C)c3n2)CC1` are -4% and 0.62.
Take `Cc1cc(C)n(Cc2cccc(-c3noc([C@H]4COC(=O)N4)n3)c2)n1`: the “% Inhibition” value is on record as -6% and the Z score amounted to 0.97.
The corresponding values for `CN(c1cccc2ncccc12)S(=O)(=O)c1cc(Cl)ccc1OCC(N)=O` are -8% and 1.23.
For `CC[C@@H]1C[C@H]1NS(=O)(=O)c1cnc2cccnn12`, in that order: 6% and -1.29.
As for `CN(C)c1ccccc1-c1ccc(F)c2[nH]ccc12`, the “% Inhibition” value amounted to 3% and the Z score is recorded as -0.62.
The corresponding values for `CN1CCC(OCCCNc2nccc3ccccc23)CC1` are 5% and -0.94.
For `COc1cccc(Oc2ccc(NC(=O)c3cc(-c4ccccn4)[nH]n3)cn2)c1`, in that order: 14% and -3.06.
The corresponding values for `CC(C)N1CCN(CCCN2CC[C@H](c3ccncc3)C2)CC1` are -9% and 1.62.
`NCCOCCOCCNCCN1CCN(CCOCCOCCN)CC1`: the “% Inhibition” value is given as -9% and the Z score worked out at 1.32.
For `NC(=O)C1CCN(CCCCNc2nccc(C(F)(F)F)n2)CC1`, in that order: -9% and 1.38.
`O=C1C[C@H](CNc2cc(N3CCC(O)CC3)ncn2)CN1C1CCCC1`: the “% Inhibition” value is recorded as -2% and the Z score was 0.39.
For `Cc1cc(C)c2nc(N3CCN(C)CC3)cc(C)c2c1`, in that order: -1% and 0.2.
Regarding `c1ccc(-n2ncc3c(Nc4ccc5c(c4)OCO5)nc(NC4CCCCCC4)nc32)cc1`, the “% Inhibition” value is -10% and the Z score turned out to be 1.5.
Consider `O=C(N[C@H](CO)Cc1c[nH]c2ccccc12)c1ccnc(OCC(F)F)c1`, for which the “% Inhibition” value is -3% and the Z score is 0.44.
As for `Nc1nc(NC2COCCC2Oc2ccccn2)c2c[nH]nc2n1` (stereo not given), the “% Inhibition” value is -12% and the Z score is 2.05.
The corresponding values for `Oc1cccc(Nc2cccc(C(F)(F)F)c2)c1` are -1% and 0.1.
As for `COC(=O)[C@@H](C)CNC(=O)Nc1cccnc1-c1cnn(C)c1`, the “% Inhibition” value is listed as -6% and the Z score stood at 0.89.
Turning to `Nc1nnc(Nc2cccc(Cl)c2)s1`, the “% Inhibition” value is -3% and the Z score stood at 0.7.
The corresponding values for `Cn1c(-c2ccccc2)c(C(=O)C(=O)Nc2ccc3c(c2)COc2ccccc2O3)c2ccccc21` are 6% and -1.05.
Turning to `CC(CNC1CC2(CCC2)Oc2ccccc21)CN1CCN(C)CC1` (stereo not given), the “% Inhibition” value is 3% and the Z score is -0.45.
Take `Cc1c(C#N)c(NCc2cc(O[C@H]3CCNC3)ccn2)nc2ccccc12`: the “% Inhibition” value is 0% and the Z score was 0.02.
